Source: ChEMBL document CHEMBL4888484, “Replenishing the malaria drug discovery pipeline: Screening and hit evaluation of the MMV Hit Generation Library 1 (HGL1) against asexual blood stage Plasmodium falciparum ,using a nano luciferase reporter read-out” (2022)
About 540 (0.36%) of roughly 150,000 compounds showed an effect of 50% or more. The list shows a part of the results.

The compounds below were run on Plasmodium falciparum (assay: Primary screen in NF54 nanoGlo assay, in single point, at 2uM, 72h; a lower Z score goes with more inhibition). Details: timepoint 72 hour.
Type: functional, Erythrocyte

Row | Compound | % Inhibition [%] | Z score
1 | CCCc1nc(C(=O)NCCCN(C)c2ccccc2)cs1 | -9 | 1.87
2 | Cc1ccc(CN2CCC3(CC2)CCN(C(=O)C2CCC2)C[C@@H]3CO)s1 | -10 | 1.2
3 | O=C(C1CCCCCC1)N1CCCC1C(O)C(F)(F)F (stereo unspecified) | 29 | -3.32
4 | CN1C[C@@H](C(=O)N2CCc3c([nH]n(CCO)c3=O)C2)Oc2ccccc21 | -6 | 1.22
5 | C[C@@H](CNC(=O)c1cn(C2CCCCCC2)nn1)Oc1cccnc1 | 16 | -2.04
6 | CCN(CC)Cc1cc(-c2nc(-c3cccnn3)no2)c(C)o1 | -9 | 1.95
7 | O=C(NCC1(N2CCOCC2)CCCCC1)Nc1ccc(-c2ccn[nH]2)cc1 | -25 | 2.38
8 | O=c1c(-c2nc(-c3ccc(F)cc3)no2)cnc2ccccn12 | -6 | 0.89
9 | CCN1CCC[C@@H]1CNC(=O)c1csc(NC(=O)c2ccccc2C)n1 | -8 | 1.17
10 | CCc1nnc(CNC(=O)[C@@H](C)Cn2cncn2)s1 | -4 | 0.52
11 | C=CCNS(=O)(=O)c1cc(Br)c(C)cc1C | -6 | 0.79
12 | Cc1n[nH]c(C)c1CC(=O)N1CCC2(CCc3ccccc3C2)CC1 | -8 | 1.46
13 | COc1ccc(Oc2nc(-c3ccccc3)c3cc(Br)ccc3n2)cc1 | -3 | 0.45
14 | O=C(NC1CCOCC1)c1cccc(S(=O)(=O)NCc2ccccn2)c1 | -4 | 0.76
15 | O=C(Cn1cnc2ccc(Cl)cc2c1=O)Nc1ccc(OCc2ccccc2)cc1 | -17 | 2.62
16 | CC1CC(C)CN(S(=O)(=O)N2CCCC(O)c3cc(F)ccc32)C1 (stereo unspecified) | -8 | 1.05
17 | C[C@H]1CN(C)C(=O)CN1c1nccc(C(C)(C)C)n1 | -19 | 2.07
18 | COc1ccc(S(=O)(=O)C2CCN(C(=O)CNC(=O)OCc3ccccc3)CC2)cc1 | 4 | -0.47
19 | C[C@@H]1CCN(C(=O)Nc2cccc(-n3cc(C(F)(F)F)cn3)c2)C[C@H](C)O1 | -13 | 1.34
20 | CCn1cc(NC(=O)[C@@H]2CC(c3cc(F)ccc3F)=NO2)cn1 | -9 | 1.4
21 | COc1nc2c(cc1CNC(=O)[C@H]1CC[C@@H](O)CC1)C(=O)N(C1CCCC1)C2 | -9 | 1.94
22 | Cc1noc(C)c1CN1CCCN(CC(=O)N2CCCC2)CC1 | -2 | 0.23

Row | Compound | % Inhibition [%] | Z score
23 | Cc1nonc1CC(=O)NC[C@H]1CC(=O)N(C(C)(C)C)C1 | -9 | 1.69
24 | Cc1ocnc1C(=O)NCCc1nc2ccccc2o1 | -5 | 0.94
25 | CN1CCCN(C(=O)c2cccc(S(=O)(=O)N3CCCCC3)c2)CC1 | -4 | 0.33
26 | CN(C/C=C/c1ccco1)CC1(CO)CCCC1 | -9 | 1.84
27 | Cc1cc(Oc2ccc(NC(=O)c3csnn3)cc2)n[nH]1 | -11 | 1.16
28 | O=C(NCc1nc(CO)cs1)c1cscc1C(F)(F)F | 6 | -0.6
29 | Cc1cccc2c(CNCc3n[nH]c(=O)[nH]3)cccc12 | 2 | -0.32
30 | COCCC1(c2noc(C)n2)CCN(C(=O)CN2CCCCCC2)CC1 | -11 | 1.42
31 | CCCS(=O)(=O)NC[C@H](N)c1ccc(C(C)C)cc1 | 0 | 0.01
32 | COc1ccc2nc(CN3CCC[C@H]3C(C)(C)O)sc2c1 | -3 | 0.49
33 | CCS(=O)(=O)C[C@H](C)N(C)c1ccnc(Cc2ccccc2)n1 | 0 | 0.05
34 | CCc1ccc(CN2CCC(N3CCC[C@H](C(=O)NC4CC4)C3)CC2)o1 | -7 | 0.97
35 | Cc1ccc(CNC(=O)n2ncc3ccccc32)cc1 | -16 | 3.2
36 | O=C(Cn1ncccc1=O)Nc1cccnc1 | 2 | -0.24
37 | CCn1cc(CNC(=O)Cn2ccc(=O)cc2)c(C)n1 | 2 | -0.27
38 | Cc1nc2ncccc2cc1-c1nc(C2CC2)n[nH]1 | -2 | 0.24
39 | c1coc(Cn2ccnc2-c2cnc(N3CCCC3)s2)c1 | 1 | -0.09
40 | CCCn1cc(CNC(=O)CN2CCCC2)cn1 | -7 | 0.77
41 | O=C1OCC2(CCN(Cc3ccccc3OC(F)(F)F)CC2)O1 | 10 | -0.93
42 | Cc1nn(C)c2c(N3CCc4ccccc4C3)nc(C3CC3)nc12 | 38 | -5.44
43 | CC(C)(C)c1cn(C[C@H]2CCCN(C(=O)c3ccc4nccnc4c3)C2)nn1 | -5 | 0.95
